Test results from patent publication US6645774B1 (Synaptic Pharmaceutical Corporation, priority 1994, dated 2003).

Key:
[1] = target: rat Y5 receptor; experiment: Radioligand binding to cloned rat Y5 receptor (COS-7 membranes); conditions: cloned rat Y-type receptors; expression system not given
[2] = test system: rat Y5 receptor; experiment: Radioimmunoassay of forskolin-stimulated cAMP, 293 cells stably expressing rat Y5
[3] = target: T1, human Y5 receptor (Homo sapiens, UniProt Q15761); experiment: ^125I-PYY binding to cloned human Y5 receptor (COS-7 membranes); parameters: apparent Kd; pKd; other: human Y5 in COS-7, n=4; The isolated clone (CG-19) turned out to contain a full length cDNA cloned in the correct orientation for functional expression; The longest open reading frame encodes a 455 amino acid protein; conditions: cloned human Y-type receptors; expression system not given
T1 sequence (Q15761 1-445): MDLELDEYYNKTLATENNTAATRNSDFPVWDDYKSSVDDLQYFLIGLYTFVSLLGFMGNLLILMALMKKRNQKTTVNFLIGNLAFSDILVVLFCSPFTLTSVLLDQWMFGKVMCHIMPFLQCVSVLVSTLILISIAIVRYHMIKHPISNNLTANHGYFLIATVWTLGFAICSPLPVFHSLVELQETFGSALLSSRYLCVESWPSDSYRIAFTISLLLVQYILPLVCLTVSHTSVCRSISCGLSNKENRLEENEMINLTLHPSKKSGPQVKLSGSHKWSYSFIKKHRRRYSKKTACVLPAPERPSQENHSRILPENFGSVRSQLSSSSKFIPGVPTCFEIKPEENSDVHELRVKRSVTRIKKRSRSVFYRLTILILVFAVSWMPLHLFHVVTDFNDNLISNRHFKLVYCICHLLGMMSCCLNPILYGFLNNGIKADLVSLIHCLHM

[4] = test system: human Y5 receptor; experiment: Radioimmunoassay of forskolin-stimulated cAMP, LM(tk-) cells stably expressing human Y5; assay type: cell-based; conditions: forskolin, suspended and replated LM(tk-) with human Y5, n=87
[5] = test system: human Y5 receptor; experiment: Radioimmunoassay of forskolin-stimulated cAMP, NIH-3T3 cells stably expressing human Y5; assay type: cell-based; conditions: 10 uM forskolin, NIH-3T3 with human Y5, n=2
[6] = target: T1, human Y5 receptor; experiment: Radioligand binding to human Y5 receptor stably expressed in LM(tk-) cells; conditions: read-out: Binding Affinity (Ki (nM) vs. ^125I-PYY) Human Receptor Y5; stably transfected cells, compounds
[7] = target: T1, human Y5 receptor; experiment: Radioimmunoassay of forskolin-stimulated cAMP, LM(tk-) cells stably expressing human Y5; assay type: cell-based; parameters: apparent Kd; pKd; other: human Y5 in COS-7, n=4; The isolated clone (CG-19) turned out to contain a full length cDNA cloned in the correct orientation for functional expression; The longest open reading frame encodes a 455 amino acid protein; conditions: block of NPY-induced inhibition of cAMP; compound 28: preliminary experiments
[8] = test system: human Y5 receptor; experiment: Radioligand binding to human Y5 receptor stably expressed in LM(tk-) cells; conditions: 1 nM to 100 μM, over the entire concentration range, 0.08 nM ^125I-PYY

Ki [1]: 25 µM
Ki [3]: 49 µM
Compound: NC(N)=NCCC[C@@H](NC(=O)C(c1ccccc1)c1ccccc1)C(=O)NCc1ccc(O)cc1 [BIBP 3226]
antagonism of NPY- or PP-induced activation ([2]; rat Y5, concentrations up to 1 μM): no evidence for antagonism

Compound: C=C[C@@]1(C)CC(=O)[C@]2(O)[C@@]3(C)[C@@H](O)CCC(C)(C)[C@@H]3[C@H](O)[C@H](OC(C)=O)[C@@]2(C)O1 [forskolin]
increase in cAMP accumulation ([2]; 10 μM forskolin, 5 minute period, 293 cells with rat Y5): 10 fold
average increase in [cAMP] [4]: 7.4 fold
average increase in [cAMP] [5]: 21 fold

Ki [6]: 19000 nM
functional character at the human Y5 receptor [7]: Y5 receptor antagonist
Compound: 2-(Naphthalen-1-yl)-3-phenylpropane-1,2-diamine [Compound 28]

Compound: Nc1nc2c(ncn2[C@@H]2O[C@H](COP(=O)(O)OP(=O)(O)NP(=O)(O)O)[C@@H](O)[C@H]2O)c(=O)[nH]1 [Gpp(NH)p, reference compound]
change in ^125I-PYY radioligand binding [8]: −85 fmol/mg membrane protein

Each block holds one compound with its values, some of them ahead of it.
